Measurements taken from PMC6919601, “Identification of Plasmodium dipeptidyl aminopeptidase allosteric inhibitors by high throughput screening” (PLoS ONE, 2019).
Among all 110,000 compounds or so, about 230 (0.21%) showed an effect of 50% or more. The list shows a part of the results.

Molecular target: DPAP1 (Plasmodium falciparum, UniProt Q8IIJ9)
Experiment: primary screen, percent inhibition; read by cleavage of a fluorogenic dipeptide substrate; higher = more effect of the substance
Design: species or system P. falciparum D10 trophozoite lysates; single well
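Also: 30 min substrate incubation versus DMSO and 10 µM JCP410 controls.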

Sequence of DPAP1 (Q8IIJ9 whole entry, looked up): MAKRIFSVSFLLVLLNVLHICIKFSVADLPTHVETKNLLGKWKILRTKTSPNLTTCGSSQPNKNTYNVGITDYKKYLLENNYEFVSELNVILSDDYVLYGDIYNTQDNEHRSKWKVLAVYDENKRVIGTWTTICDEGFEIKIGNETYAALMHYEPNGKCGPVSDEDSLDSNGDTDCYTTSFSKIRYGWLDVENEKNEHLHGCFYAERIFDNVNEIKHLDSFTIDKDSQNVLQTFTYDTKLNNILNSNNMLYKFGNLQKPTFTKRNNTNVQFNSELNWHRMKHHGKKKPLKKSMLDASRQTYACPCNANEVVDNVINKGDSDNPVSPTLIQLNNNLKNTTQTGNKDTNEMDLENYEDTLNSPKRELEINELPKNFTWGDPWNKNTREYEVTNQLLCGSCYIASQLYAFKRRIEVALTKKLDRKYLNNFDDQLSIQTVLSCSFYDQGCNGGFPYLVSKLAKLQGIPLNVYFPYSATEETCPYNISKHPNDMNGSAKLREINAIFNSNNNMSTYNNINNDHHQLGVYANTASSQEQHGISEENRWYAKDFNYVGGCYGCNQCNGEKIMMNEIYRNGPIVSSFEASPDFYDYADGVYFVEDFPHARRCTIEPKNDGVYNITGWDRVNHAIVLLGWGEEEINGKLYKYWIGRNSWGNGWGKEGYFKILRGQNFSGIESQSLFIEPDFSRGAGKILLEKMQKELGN

Question: Which “% Inhibition @ 10 uM” value does the source give for `CC(C)(C)c1ccc2c(c1)C(=O)N(c1cccc(C(=O)O)c1)C2=O` here?
Answer: The value was -6.24%.

Question: With `CCOC(=O)c1sc2c(Cl)c(OC)ccc2c1Cl` as the molecule, how does the “% Inhibition @ 10 uM” value read?
Answer: Its value is 1.54%.

Question: With `O=C(Cn1ncc2c3ccccc3n(Cc3ccccc3)c2c1=O)N1CCC(N2CCCCC2)CC1` as the molecule, how does the “% Inhibition @ 10 uM” value read?
Answer: The value was 9.33%.

Question: Which “% Inhibition @ 10 uM” value does the source give for `CCN1C(=O)C(CC(=O)Nc2ccc(F)cc2)S/C1=N/c1ccc(Cl)cc1` (centres unmarked) here?
Answer: The value was 4.98%.

Question: With `COc1ccc(CC(=O)Nc2cccc(Cl)c2C)cc1` as the molecule, how does the “% Inhibition @ 10 uM” value read?
Answer: Its value is -2.14%.

Question: Which “% Inhibition @ 10 uM” value does the source give for `O=S(=O)(/N=C(/NC(=S)Nc1ccccc1)c1ccccc1)c1ccccc1` here?
Answer: Its value is 0.00784%.

Question: `COc1ccc(-n2nc(C)cc2O)cc1` was tested. Which “% Inhibition @ 10 uM” value did it give?
Answer: Its value is 3.72%.

Question: With `COc1cc(CN2CCC(Cc3ccccc3)CC2)cc(OC)c1O` as the molecule, how does the “% Inhibition @ 10 uM” value read?
Answer: Its value is -3.72%.

Question: Which “% Inhibition @ 10 uM” value does the source give for `O=C(Nc1ccccc1C(=O)O)c1ccccc1F` here?
Answer: Its value is 1.35%.

Question: Which “% Inhibition @ 10 uM” value does the source give for `S=c1nc(-c2ccccc2)n(C2CCCCC2)c2c1CCCC2` here?
Answer: Its value is -4.8%.

Question: Which “% Inhibition @ 10 uM” value does the source give for `CCCOc1ccc(CNc2ccc(F)cc2)cc1OC` here?
Answer: Its value is -5.35%.

Question: `O=C(O)c1cnn(-c2ccccc2)c1-n1cccc1CNCCc1ccc(Cl)cc1` was tested. Which “% Inhibition @ 10 uM” value did it give?
Answer: The value was 4.79%.

Question: For `CCOc1ccc2nc(N3CCCC(C(=O)NCCc4ccc(S(N)(=O)=O)cc4)C3)sc2c1` (centres unmarked), which “% Inhibition @ 10 uM” value is on record?
Answer: Its value is 6.46%.

Question: Which “% Inhibition @ 10 uM” value does the source give for `Cc1c(Cl)cccc1NC(=O)C1CCCCC1` here?
Answer: Its value is -1.48%.

Question: Which “% Inhibition @ 10 uM” value does the source give for `CCOc1cc(/C=C2/SC(=O)NC2=O)ccc1OC(C)CC` (centres unmarked) here?
Answer: Its value is 5.39%.

Question: For `Cc1ccc2cc3cc(C(=O)NCCCN4CC(C)CC(C)C4)sc3nc2c1` (centres unmarked), which “% Inhibition @ 10 uM” value is on record?
Answer: The value was 2.55%.

Question: `Cc1nn(CC(=O)NCc2ccccn2)c(=O)c2c1sc1ccccc12` was tested. Which “% Inhibition @ 10 uM” value did it give?
Answer: Its value is 4.4%.

Question: With `C=CCOC(=O)C1=C(C)N=C2CCCC(O)=C2C1c1ccc(C(=O)OC)cc1` (centres unmarked) as the molecule, how does the “% Inhibition @ 10 uM” value read?
Answer: Its value is 2.45%.

Question: Which “% Inhibition @ 10 uM” value does the source give for `CSCCCN1CCC(O)(c2ccc(Br)cc2)CC1` here?
Answer: The value was -2.95%.

Question: For `Cc1nn(S(=O)(=O)c2ccccc2)c(C)c1Sc1ccccc1`, which “% Inhibition @ 10 uM” value is on record?
Answer: Its value is -10.2%.

Question: How did the “% Inhibition @ 10 uM” value turn out when `CCn1nc(C)c(C(=O)Nc2cc3oc4ccccc4c3cc2OC)c1C` was run?
Answer: The value was 1.92%.

Question: For `Cc1ccc(-c2nc(CSCC(=O)NCC3CCCO3)c(C)o2)cc1` (centres unmarked), which “% Inhibition @ 10 uM” value is on record?
Answer: The value was -1.05%.

Question: Which “% Inhibition @ 10 uM” value does the source give for `Cc1cc(F)c(F)cc1C(=O)Nc1cccc(F)c1` here?
Answer: Its value is -6.08%.

Question: `COc1ccc(/C=C/C(=O)Nc2noc3ccccc23)cc1OC` was tested. Which “% Inhibition @ 10 uM” value did it give?
Answer: The value was -4.64%.

Question: With `CC(C)n1cc(NC(=O)c2cc(-c3ccccc3)on2)cn1` as the molecule, how does the “% Inhibition @ 10 uM” value read?
Answer: Its value is 3.54%.

Question: Which “% Inhibition @ 10 uM” value does the source give for `Nc1no[n+]([O-])c1C(=O)NCc1cccnc1` here?
Answer: Its value is -0.403%.

Question: For `CC(C)Nc1nc(Cl)nc(NC2CCCCC2)n1`, which “% Inhibition @ 10 uM” value is on record?
Answer: The value was -2.6%.

Question: How did the “% Inhibition @ 10 uM” value turn out when `CC(C)CNC1CCS(=O)(=O)C1` (centres unmarked) was run?
Answer: The value was 2.66%.

Question: `Cc1ccc(/C=C/C(=O)NCCCC(=O)N2CCC(N(C)C(C)C)CC2)cc1` was tested. Which “% Inhibition @ 10 uM” value did it give?
Answer: Its value is 4.83%.

Question: How did the “% Inhibition @ 10 uM” value turn out when `O=[N+]([O-])c1ccc(Nc2ccc(Br)cc2)nc1` was run?
Answer: The value was -4.15%.

Question: With `COc1ccccc1S(=O)Cc1ccc(C(=O)NCCc2ccc(Cl)cc2)o1` (centres unmarked) as the molecule, how does the “% Inhibition @ 10 uM” value read?
Answer: Its value is -4.96%.

Question: Which “% Inhibition @ 10 uM” value does the source give for `COc1ccc(-c2cc(C)no2)cc1S(=O)(=O)N1CCOCC1` here?
Answer: The value was 1.5%.

Question: With `CC(C)n1cc(/C=C2/NC(=O)N(c3ccccc3)C2=O)c2ccccc21` as the molecule, how does the “% Inhibition @ 10 uM” value read?
Answer: Its value is 0.316%.

Question: With `CC(=O)N[C@H]1[C@H](Oc2cc(C)ccc2C)O[C@H](CO)[C@@H](O)[C@@H]1O` as the molecule, how does the “% Inhibition @ 10 uM” value read?
Answer: The value was -2.45%.

Question: Which “% Inhibition @ 10 uM” value does the source give for `Cc1ccc(CC2(O)CC(C)N(C)CC2C)cc1` (centres unmarked) here?
Answer: Its value is 5.66%.

Question: Which “% Inhibition @ 10 uM” value does the source give for `Cc1onc(-c2ccccc2Cl)c1C(=O)Nc1ccc(CC#N)cc1` here?
Answer: Its value is -1.28%.

Question: For `CC1(C)Cc2c(C#N)c(SCc3ccccc3)nc(N3CCCC3)c2CO1`, which “% Inhibition @ 10 uM” value is on record?
Answer: The value was -7.19%.

Question: Which “% Inhibition @ 10 uM” value does the source give for `C=CCN1C(=O)N/C(=C/c2ccc(OC)c(Cl)c2)C1=O` here?
Answer: Its value is -10.8%.

Question: Which “% Inhibition @ 10 uM” value does the source give for `Cc1ccc(NC(=O)CSc2ncnc3sc(C)c(C)c23)cc1` here?
Answer: Its value is 1.65%.

Question: With `Fc1ccc(OCCOCCN2CCCC2)cc1` as the molecule, how does the “% Inhibition @ 10 uM” value read?
Answer: Its value is -7.61%.

Question: How did the “% Inhibition @ 10 uM” value turn out when `COc1cccc(C2C3=C(O)CC(C)(C)CC3=Nc3nn(-c4ccccc4)c(O)c32)c1` (centres unmarked) was run?
Answer: The value was -7.38%.

Question: Which “% Inhibition @ 10 uM” value does the source give for `FC(F)(F)c1ccccc1C1CC(c2cccs2)=NN1c1cccc(Cl)c1` (centres unmarked) here?
Answer: The value was -7.02%.

Question: For `CCN1CCN(Cc2nc3c(c(=O)n(C)c(=O)n3C)n2CC(=O)c2ccccc2)CC1`, which “% Inhibition @ 10 uM” value is on record?
Answer: The value was 2%.

Question: For `O=C(c1cccc(Br)c1)N1CCCC1`, which “% Inhibition @ 10 uM” value is on record?
Answer: Its value is -3.13%.

Question: `CCc1ccc(OCC(=O)N2CCN(c3ccccn3)CC2)c(Br)c1` was tested. Which “% Inhibition @ 10 uM” value did it give?
Answer: The value was 1.39%.

Question: For `CCOC(=O)c1cc2c(=O)n3ccccc3nc2n(C)/c1=N/C(=O)C(C)(C)Oc1ccc(Cl)cc1`, which “% Inhibition @ 10 uM” value is on record?
Answer: The value was -2.04%.

Question: For `CCOC(=O)C(C(=O)N1CCOCC1)C1CCCCC1` (centres unmarked), which “% Inhibition @ 10 uM” value is on record?
Answer: Its value is -2.42%.

Question: `CCCCNC(=S)N1CCn2cccc2C1c1ccccc1F` (centres unmarked) was tested. Which “% Inhibition @ 10 uM” value did it give?
Answer: The value was 4.79%.

Question: `O=C1CC(c2ccccc2Cl)Cc2c1cnn2-c1nc2ccccc2[nH]1` (centres unmarked) was tested. Which “% Inhibition @ 10 uM” value did it give?
Answer: The value was -5.38%.

Question: Which “% Inhibition @ 10 uM” value does the source give for `CCOC(=O)c1sc(NC(=O)CSc2nnc(-c3sc(N)nc3C)n2C)nc1C` here?
Answer: Its value is -4.94%.
